Columns and labels:
cross-linking [1] = target: the molecule itself; assay: cross-linking
native gel or EMSA = target: the molecule itself; assay: native gel or EMSA
cross-linking [2] = target: the molecule itself; assay: cross-linking; remark: listed apart in the source

B1: polymorphic S326C OGG1 (enzyme)
chain: not shown
stoichiometry N (cross-linking [1]): 2

B2: S326C CΔ19 OGG1 (domain or fragment)
chain: not shown
stoichiometry N (native gel or EMSA): 2

B3: N-terminally FLAG-tagged S326C OGG1 expressed in HeLa cells (enzyme)
chain: not shown
stoichiometry N (cross-linking [2]): 2
